According to the supplement of paper PMC12217912:
Some of the results follow. Sequences were assembled here from the parent chain. Values near 0.05 are background.

B1: TEV protease; numbered along this chain (parent)
chain: MGESLFKGPRDYNPISSSICHLTNESDGHTTSLYGIGFGPFIITNKHLFRRNNGTLVVQSLHGVFKVKDTTTLQQHLVDGRDMIIIRMPKDFPPFPQKLKFREPQREERICLVTTNFQTKSMSSMVSDTSCTFPSGDGIFWKHWIQTKDGQCGSPLVSTRDGFIVGIHSASNFTNTNNYFTSVPKNFMELLTNQEAQQWVSGWRLNADSVLWGGHKVFMVKPEEPFQPVKEATQL

Variants of: B1
Assay: raw area under fraction-flipped curve 0-4 h after induction (AUC4h, not background-subtracted), DNA-recorder readout of cleavage of the substrate (dimensionless); higher = more cleavage of the substrate by the protease variant
Conditions: temperature: 34 °C; time window: 0-4 h after rhamnose induction
Protocol: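 In vivo DNA recorder in E. coli TOP10(DE3) ΔrhaA at 34 °C. Each TEVp single-site mutant (parent TEVp 0) is paired with a single-site variant of the 7-mer TEVs (canonical ENLYFQ|S). The substrate sits between flexible linkers in a Bxb1-sfGFP-TEVs-SsrA fusion, so cleavage stabilises Bxb1 and speeds flipping of a recombination array, read by NGS. The value is the raw area under the fraction-flipped curve over 0-4 h after rhamnose induction (AUC4h), with ≥20 reads per time point. It is not background-subtracted; inactive controls average about 0.047.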
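Also: Bxb1 expression induced with 0.2% (w/v) L-rhamnose at OD600 near 0.5, cultures sampled hourly, flipped fraction per protease–substrate barcode pair counted by paired-end Illumina sequencing.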

Variant	area with substrate ENLYDQS	area with substrate ENLYEQS	area with substrate ENLYGQS	area with substrate ENLYHQS	area with substrate ENLYIQS	area with substrate ENLYKQS	area with substrate ENLYLQS	area with substrate ENLYMQS	area with substrate ENLYNQS	area with substrate ENLYPQS	area with substrate ENLYQQS	area with substrate ENLYSQS	area with substrate ENLYTQS	area with substrate ENLYWQS	area with substrate ENLYYQS	area with substrate ENLYRQS	area with substrate ENLYVQS	area with substrate ENLYCQS
K46P	0.0664	0.05	0.0555	0.0621	0.0618	0.0586	0.0577	0.0621	0.0708	0.077	0.0582	0.0548	0.0573	0.0526	0.0632			
K66P	0.048	0.0647	0.0569	0.0538	0.0969	0.0496	0.0701	0.0727	0.0455	0.077	0.0666		0.074	0.0608	0.0617	0.0251	0.0979	
L77N	0.0666	0.0548	0.0685	0.0266	0.0671	0.062	0.0547	0.0594	0.0626	0.0698	0.0621		0.0584	0.0544	0.0796	0.0592	0.0783	
C20F	0.0457	0.0481	0.0389	0.0597		0.0436	0.0526	0.0553	0.0551	0.0118				0.0574	0.0527		0.0569	
G213F		0.0586	0.0472	0.0538	0.0526		0.0409	0.053	0.0588		0.0572	0.0558		0.0557	0.0846			0.0369
F65W	0.0614	0.0721	0.0709	0.0628		0.0622		0.0789	0.0665			0.0659	0.0788	0.128	0.0622		0.0929	
T71L	0.0747		0.0636		0.102	0.0467	0.0702	0.0747	0.0686		0.0608		0.0909				0.106	
T71W	0.0797	0.0607	0.0783	0.0375	0.15	0.0589	0.0019		0.0515	0.0338			0.0487	0.0709	0.0614	0.0326	0.0993	
L73Y	0.0605	0.0752	0.054	0.0579	0.064	0.0635	0.0509	0.0686		0.0574	0.0665	0.0548		0.0583	0.0729	0.0537	0.0683	
L73P	0.0564	0.0542	0.0519	0.0509		0.0331		0.0588	0.0575	0.0525	0.0531	0.0544	0.0654	0.055			0.0604	
E103L	0.0823	0.106	0.0573	0.0758				0.121	0.0678	0.0703	0.0565	0.0735		0.0727	0.0718			
E103C	0.0618	0.0727	0.0672	0.0376	0.135	0.0694		0.107	0.0749	0.0927	0.0787	0.0839		0.0932	0.0626		0.076	
F187I		0.0609	0.0705	0.0676	0.108	0.141			0.0534	0.0673	0.0608		0.0822	0.107	0.0535	0.0644	0.108	0.0919
F180L		0.0654				0.0866	0.0578	0.0534			0.0498			0.061			0.131	0.0835
D27K	0.0723	0.0622	0.0603	0.0322	0.108	0.0664	0.0753	0.0574	0.0521			0.0548		0.07			0.0991	
C111T	0.0769	0.0681	0.0672	0.0661		0.0435	0.0908		0.0699	0.0797			0.103		0.0462	0.067	0.0703	
C111Y	0.0476	0.0763	0.0701	0.0645	0.132	0.0599				0.0821	0.071	0.0689		0.0884	0.0587	0.0675		
N45H	0.0612	0.0649	0.0422	0.0579	0.0641	0.0634		0.0686	0.058	0.0781	0.062	0.105				0.0527	0.0657	
W212K		0.0616	0.0535		0.0491	0.0514	0.0587	0.0661	0.0595	0.0628		0.0629	0.0639	0.0391	0.0555	0.0462	0.0647	0.0661
T181L		0.0607	0.0489	0.0575			0.0391		0.0556	0.059	0.0531	0.0893		0.0507		0.0576	0.0751	0.0662
G54L	0.0543	0.0609	0.0458	0.0515	0.0639	0.0647	0.0585	0.0608	0.0592	0.0592	0.044	0.0628	0.0599	0.0526	0.0369	0.0631		
R50D	0.0588	0.0595		0.0491		0.0266	0.0767		0.0779			0.0675		0.0602				
K230E	0.0492	0.0536	0.0679		0.116	0.0514	0.0838	0.0827	0.0564		0.073	0.0763	0.118	0.0839			0.0908	0.082
K230V	0.0609	0.0682		0.065		0.0571		0.0744	0.0641	0.0647						0.0627	0.114	0.0858
H47K	0.07	0.0592	0.0716	0.0588	0.061	0.0874		0.0655	0.0572	0.0709	0.0534	0.0593		0.056	0.0669	0.0343	0.0546	
H47D	0.0556	0.0704	0.0623	0.0602	0.0426	0.0589		0.0473	0.0625	0.0572	0.0529	0.0381	0.054			0.0366	0.0123	
M219E	0.0543	0.0742	0.0557	0.0699		0.0547		0.0668	0.0681	0.0425		0.0617			0.0695	0.0605	0.0593	0.0625
